± gives the standard deviation of the averaged measurements. The list shows a part of the results.
What follows are sequences tested on PfAP2-LT AP2 domain (GST-tagged) (assay: gcPBM binding intensity (ln(normalized median fluorescence intensity)); higher = stronger DNA binding).
Method in brief: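 GST-tagged P. falciparum DNA-binding domains, expressed in E. coli (about 25 μg on average), were applied for 1 h to an Agilent 4 × 180k array of primer-extended double-stranded 36-bp intergenic genomic probes plus negative controls. The binding buffer was 1× PBS with 1% milk, 0.2 mg/ml BSA, 0.5% salmon testes DNA and 0.03% Triton X-100. Bound protein was detected with Alexa488 anti-GST antibody and scanned at 488 nm. Binding intensity is the highest Masliner-normalised natural-log median intensity across replicate spots of either probe orientation.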

| Sequence | gcPBM binding intensity (ln) |
| --- | --- |
| TTATTTATATATTGCCCACACACATGTGATTATTTA [CACACA_site1715] | 9.34 ± 0.5 |
| AATATTTTTTGTTTTACACACATATATAAATATATA [CACACA_site3602] | 8.91 ± 0.35 |
| AAGAAAAATTCTTCACGTACAAATAATTATATATAT [XGTACX_site7217] | 8.68 ± 0.37 |
| TATAATATATATGTATGTACGTATGTATGATTTTGT [XGTACX_site1164] | 8.89 ± 0.43 |
| TTTTTAATTTTTTTCACACATATATAAATACAAATA [CACACA_site5530] | 8.38 ± 0.49 |
| AAATTACAAATAAAATGTACTCATGTTTTTATTATA [XGTACX_site7223] | 8.5 ± 0.45 |
| TTTATAATTTATAGGCGGACAGGAAAATTTTATAAA [XGTACX_site6955] | 8.33 ± 0.4 |
| TTTTTTAAATATATATGTACATATATCTATATATAT [XGTACX_site3461] | 8.95 ± 0.52 |
| GCAAGGTCCACACTGGTGCATTAAAAATAAAATATA [GTGCAC_site9956] | 8.66 ± 0.52 |
| TGAACAGGTCATAATTTACACACTATATATTTTATT [CACACA_site8123] | 8.91 ± 0.5 |
| TTTTTCTTTTTTTGTTGTACATTTTGTAATATTTAC [XGTACX_site4102] | 8.92 ± 0.58 |
| TACAGGAATATTTTTACACACTAAAAGTTATAAACT [CACACA_site6876] | 8.71 ± 0.44 |
| TTTCTTATATTATATAAATATATAGATGTTAATGGT [CACACA_negctrl_site706] | 8.42 ± 0.47 |
| AATATAATATAATGCACACATAAAAAAAAAAAAAAA [CACACA_site304] | 8.96 ± 0.46 |
| TATTACAAAAATGTGTTATTATATAAACGTATAGAG [XGTACX_negctrl_site529] | 8.64 ± 0.39 |
| GTAAAATAAATAATATAAATAAAATGAAATGAAACA [TGCATGCA_negctrl_site519] | 8.86 ± 0.51 |
| ATTTTTTTTTTTTTTTTTAATTTATGTTGTTATTTT [CACACA_negctrl_site944] | 8.8 ± 0.51 |
| AAGTTTAAAGGAATTACACAAACAAGCAAATATATA [CACACA_negctrl_site857] | 8.8 ± 0.52 |
| GAACCGTTTTTATGTAGTACATATGTATATATATAT [XGTACX_site1577] | 9.12 ± 0.3 |
| ATATATATATATATAGTGCAAATAAAAAATAGACAA [GTGCAC_site9796] | 9.21 ± 0.43 |
| TAATATATTAAAAGAAGTACATTTCTGATTTAATAG [XGTACX_site6403] | 8.32 ± 0.49 |
| ATTATATAATAATAAAGTACTAATATTTTTAAAAGA [XGTACX_site235] | 8.49 ± 0.51 |

| Sequence | gcPBM binding intensity (ln) |
| --- | --- |
| AGTAAATATATTATATGTACGTATCATAAAATATAT [XGTACX_site1567] | 8.79 ± 0.45 |
| TTAATATTAAAATATAAACACACAAAATTCAATTAT [CACACA_site9262] | 8.71 ± 0.43 |
| ACAGTATAAAAATAAGCACACACACTAATATATATT [CACACA_site8212] | 9.79 ± 0.35 |
| TATATATTAATATATGCATGTTAATATATTATGAAA [TGCATGCA_site61] | 8.48 ± 0.35 |
| TAAAATATATTTTTCTGTACACAAAAATATATTAAA [XGTACX_site2813] | 8.3 ± 0.41 |
| TGATTATAGACACGCGCACACACAACAAAAAAAAAA [CACACA_site9179] | 9.43 ± 0.43 |
| TAAGTTTGTGCAAGTGGTACATATATATAAATTTAT [XGTACX_site5944] | 8.73 ± 0.45 |
| TTAGCAACTATTACTACACACATTTGTATTTAATTT [CACACA_site4961] | 9.09 ± 0.45 |
| TTTACATAAACTGGTAGTACATAATATGGCTTAAAA [XGTACX_site5002] | 8.59 ± 0.31 |
| TGGATTTTTTGATTTTTGTTTTTCTTCTTTCCCCCC [CACACA_negctrl_site1471] | 8.64 ± 0.28 |
| TAATAATAATTAAAATGAGATAAATAAATATATATA [TGCATGCA_negctrl_site322] | 8.44 ± 0.39 |
| TCTTTATATCATCTTTCTAAATATATATATATATAA [CACACA_negctrl_site77] | 8.54 ± 0.4 |
| CTATTAATGTACTCTACACACATATAAGAGGACATT [CACACA_site471] | 8.92 ± 0.37 |
| TTATATATTTATAAATGTACGTATAAGAATTTAATT [XGTACX_site8541] | 8.44 ± 0.35 |
| AATGTAAAACGAAATGCACACTATGGAAAATATAAA [CACACA_site4559] | 9.21 ± 0.43 |
| AAAAATAAAAATGAGTGTACTTTAAGCCCTACACTT [XGTACX_site828] | 8.78 ± 0.46 |
| TATAATATTATAGTTTGTACGAAAATAATATATTTA [XGTACX_site8673] | 8.38 ± 0.38 |
| TTTTACTATGATATTTATATATCTATATATGTATAT [XGTACX_negctrl_site499] | 8.77 ± 0.47 |
| AACCAAAATTTTTGTCGTACAAAAGAGCAAATGTAG [XGTACX_site6472] | 8.9 ± 0.47 |
| ACGATGTTCATCACTACACACACAAAGAAATATATA [CACACA_site8859] | 9.26 ± 0.37 |
| TATATATATATATATATATATATTAATATATATTAC [XGTACX_negctrl_site103] | 9.43 ± 0.26 |
| AAATTAATAAATATTTTTATAAATTATAATATTAAT [GTGCAC_negctrl_site533] | 8.04 ± 0.39 |
